Experimental data: patent US20250011397A1 (HOSPITAL FOR SICK CHILDREN, published 2025)

Biological target: T1, SARS-CoV-2 Spike, prefusion S ectodomain (BEI NR52394), His-tagged (SARS-CoV-2)
T1 construct: extracellular domain; also called S protein; S glycoprotein
Assay: BLI, His-tagged Spike on Ni-NTA biosensors, 1:1 fit

B1: 4A8 MB (other)
chain 1: EIVMTQSPLSSPVTLGQPASISCRSSQSLVHSDGNTYLSWLQQRPGQPPRLLIYKISNRFSGVPDRFSGSGAGTDFTLKISRVEAEDVGVYYCTQATQFPYTFGQGTKVDIKRTVAAPSVFIFPPSDEQLKSGTASVVCLLNNFYPREAKVQWKVDNALQSGNSQESVTEQDSKDSTYSLSSTLTLSKADYEKHKVYACEVTHQGLSSPVTKSFNRGECGGGGSGGGGSGGGGSGGGGSGGGGSGGGGSGGGGSGGGGSGGGGSGGGGSGGGGSGGGGSGGGGSGGGGSEVQLVESGAEVKKPGASVKVSCKVSGYTLTELSMHWVRQAPGKGLEWMGGFDPEDGETMYAQKFQGRVTMTEDTSTDTAYMELSSLRSEDTAVYYCATSTAVAGTPDLFDYYYGMDVWGQGTTVTVSSASTKGPSVFPLAPSSKSTSGGTAALGCLVKDYFPEPVTVSWNSGALTSGVHTFPAVLQSSGLYSLSSVVTVPSSSLGTQTYICNVNHKPSNTKVDKKVEPKSCGGGGSGGGGSGGGGSGGGGSGGGGSG[about 200 residues not spelt out]
chain 2: [human IgG1 Fc not spelt out]GGGGSGGGGSGGGGSGGGGSGGGGSGGGGSGGGGSGGGGSGGGGSGGGGSGGGGSGGGGSGGGGSGGGGS[human IgG1 Fc not spelt out]GGGGSGGGGSGGGGSGGGGSGGGGSGGSSQIRQNYSTDVEAAVNSLVNLYLQASYTYLSLGFYFDRDDVALEGVSHFFRELAEEKREGYERLLKMQNQRGGRALFQDIKKPAEDEW
chain 3: EIVMTQSPLSSPVTLGQPASISCRSSQSLVHSDGNTYLSWLQQRPGQPPRLLIYKISNRFSGVPDRFSGSGAGTDFTLKISRVEAEDVGVYYCTQATQFPYTFGQGTKVDIKRTVAAPSVFIFPPSDEQLKSGTASVVCLLNNFYPREAKVQWKVDNALQSGNSQESVTEQDSKDSTYSLSSTLTLSKADYEKHKVYACEVTHQGLSSPVTKSFNRGECGGGGSGGGGSGGGGSGGGGSGGGGSGGGGSGGGGSGGGGSGGGGSGGGGSGGGGSGGGGSGGGGSGGGGSEVQLVESGAEVKKPGASVKVSCKVSGYTLTELSMHWVRQAPGKGLEWMGGFDPEDGETMYAQKFQGRVTMTEDTSTDTAYMELSSLRSEDTAVYYCATSTAVAGTPDLFDYYYGMDVWGQGTTVTVSSASTKGPSVFPLAPSSKSTSGGTAALGCLVKDYFPEPVTVSWNSGALTSGVHTFPAVLQSSGLYSLSSVVTVPSSSLGTQTYICNVNHKPSNTKVDKKVEPKSCGGGGSGGGGSGGGGSGGGGSGGGGSGGGKTPDAMKAAMALEKKLNQALLDLHALGSARTDPHLCDFLETHFLDEEVKLIKKMGDHLTNLHRLGGPEAGLGEYLFERLTLRHD
  Kd: < 1 pM
  koff: < 1e-07 s⁻¹
  kon: 108000 M⁻¹ s⁻¹
